Source: the supplement of paper PMC4604168 (melanoma cell lines)
This is one part of the list. Single values are uncertain, as repeats are few or missing.

These compounds were tested on WM115 (assay: cell count relative to DMSO control; melanoma cells; higher = more viable cells). Conditions: library dose: standard library concentration; 72 h.
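Note: cells treated in 1,536-well plates, then fixed and DAPI-stained, with nuclei counted from automated high-throughput microscope images.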

Compound | cell count
CN(c1ncccc1CNc1nc(Nc2ccc3c(c2)CC(=O)N3)ncc1C(F)(F)F)S(C)(=O)=O + CC(=O)c1c(C)c2cnc(Nc3ccc(N4CCNCC4)cn3)nc2n(C2CCCC2)c1=O [palbociclib] (first compound 0.4 µM, partner dose 0.2 µM) | 53.7%
C=C(c1ccc(C(=O)O)cc1)c1cc2c(cc1C)C(C)(C)CCC2(C)C [Bexarotene] + CN(C)S(=O)(=O)c1ccc2c(c1)/C(=C/c1cc3c([nH]1)CCCC3)C(=O)N2 [SU6656] (first compound 10 µM, partner dose 2 µM) | 49%
CCCS(=O)(=O)Nc1ccc(F)c(C(=O)c2c[nH]c3ncc(Cl)cc23)c1F + O=C(O)c1ccc(-c2c[nH]c3ncc(-c4ccccc4)cc23)cc1C1CCCC1 [GSK650394] (first compound 0.4 µM, partner dose 0.8 µM) | 58.8%
CS(=O)(=O)c1ccc(C(=O)Nc2ccc(Cl)c(-c3ccccn3)c2)c(Cl)c1 [vismodegib] + CCCS(=O)(=O)Nc1ccc(F)c(C(=O)c2c[nH]c3ncc(Cl)cc23)c1F [PLX4720] (first compound 5 µM, partner dose 0.4 µM) | 81.6%

The compounds below were run on WM1716 in the same assay as above. Conditions: library dose: standard library concentration; 72 h.

Compound | cell count
CN(c1ncccc1CNc1nc(Nc2ccc3c(c2)CC(=O)N3)ncc1C(F)(F)F)S(C)(=O)=O + Cc1ccc(NC(=O)c2cccc(N(C)C)c2)cc1NC(=O)c1ccc(O)cc1 [ZM336372] (first compound 0.4 µM, partner dose 10 µM) | 117%
C=C(c1ccc(C(=O)O)cc1)c1cc2c(cc1C)C(C)(C)CCC2(C)C [Bexarotene] + Nc1ccn([C@@H]2O[C@H](CO)[C@@H](O)C2(F)F)c(=O)n1 [gemcitabine] (first compound 10 µM, partner dose 0.002 µM) | 50.4%
CS(=O)(=O)c1ccc(C(=O)Nc2ccc(Cl)c(-c3ccccn3)c2)c(Cl)c1 [vismodegib] + CS(=O)(=O)CCNCc1ccc(-c2ccc3ncnc(Nc4ccc(OCc5cccc(F)c5)c(Cl)c4)c3c2)o1 [lapatinib] (first compound 5 µM, partner dose 4 µM) | 93.9%
NC1(c2ccc(-c3nc4ccn5c(=O)[nH]nc5c4cc3-c3ccccc3)cc2)CCC1 + Cc1cc(N2CCOCC2)cc2[nH]c(-c3c(NC[C@@H](O)c4cccc(Cl)c4)cc[nH]c3=O)nc12 [BMS536924] (first compound 2 µM, partner dose 1 µM) | 67.8%
C=C(c1ccc(C(=O)O)cc1)c1cc2c(cc1C)C(C)(C)CCC2(C)C [Bexarotene] + Nc1ncn([C@H]2C[C@H](O)[C@@H](CO)O2)c(=O)n1 [decitabine] (first compound 10 µM, partner dose 0.5 µM) | 77.4%
NC1(c2ccc(-c3nc4ccn5c(=O)[nH]nc5c4cc3-c3ccccc3)cc2)CCC1 + Cn1c(Nc2ccc(C(F)(F)F)cc2)nc2cc(Oc3ccnc(-c4ncc(C(F)(F)F)[nH]4)c3)ccc21 [CHIR265] (first compound 2 µM, partner dose 0.4 µM) | 58.1%
CN(c1ncccc1CNc1nc(Nc2ccc3c(c2)CC(=O)N3)ncc1C(F)(F)F)S(C)(=O)=O + C=CCn1c(=O)c2cnc(Nc3ccc(N4CCN(C)CC4)cc3)nc2n1-c1cccc(C(C)(C)O)n1 [MK1775] (first compound 0.4 µM, partner dose 0.1 µM) | 77.9%
CCCS(=O)(=O)Nc1ccc(F)c(C(=O)c2c[nH]c3ncc(Cl)cc23)c1F + COc1cc(Nc2ncc(F)c(Nc3ccc4c(n3)NC(=O)C(C)(C)O4)n2)cc(OC)c1OC [Tamatinib] (first compound 0.4 µM, partner dose 2 µM) | 31.8%
NC1(c2ccc(-c3nc4ccn5c(=O)[nH]nc5c4cc3-c3ccccc3)cc2)CCC1 + CN(C)S(=O)(=O)c1ccc2c(c1)/C(=C/c1cc3c([nH]1)CCCC3)C(=O)N2 [SU6656] (first compound 2 µM, partner dose 2 µM) | 72.6%
CS(=O)(=O)c1ccc(C(=O)Nc2ccc(Cl)c(-c3ccccn3)c2)c(Cl)c1 [vismodegib] + NC(=O)Nc1cc(-c2cccc(F)c2)sc1C(=O)N[C@H]1CCCNC1 [AZD7762] (first compound 5 µM, partner dose 0.1 µM) | 88.1%
